Results: PubChem BioAssay AID485344 (National Center for Advancing Translational Sciences (NCATS), 2010)
Hit rate of the full screen: of about 340,000 compounds, about 6,900 (2%) were called active. No stated cut-off is given here; in the data, active means inhibition above about 30%; inactive means below that, where a call was filed. This is a selection; strong and weak results do not stand in their true shares. Entries without a call were filed so in the source.

The compounds below were run against D(2) dopamine receptor (Homo sapiens) (UniProt P14416) (assay: HTS Assay for Allosteric Antagonists of the Human D2 Dopamine Receptor: Primary Screen for Antagonists). Settings: HEK293 TREx D2 cells, calcium flux, dopamine EC80; at 10 µM; stronger effect = higher value.
How it was run: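 Antagonism is scored as inhibition of an EC80 dopamine-evoked calcium signal in a force-coupled, tetracycline-inducible HEK293 T-REx D2 line, with compound present 180 s before agonist.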
Further: 0% is about no effect.

Chain of UniProt P14416 (P14416 whole entry, looked up): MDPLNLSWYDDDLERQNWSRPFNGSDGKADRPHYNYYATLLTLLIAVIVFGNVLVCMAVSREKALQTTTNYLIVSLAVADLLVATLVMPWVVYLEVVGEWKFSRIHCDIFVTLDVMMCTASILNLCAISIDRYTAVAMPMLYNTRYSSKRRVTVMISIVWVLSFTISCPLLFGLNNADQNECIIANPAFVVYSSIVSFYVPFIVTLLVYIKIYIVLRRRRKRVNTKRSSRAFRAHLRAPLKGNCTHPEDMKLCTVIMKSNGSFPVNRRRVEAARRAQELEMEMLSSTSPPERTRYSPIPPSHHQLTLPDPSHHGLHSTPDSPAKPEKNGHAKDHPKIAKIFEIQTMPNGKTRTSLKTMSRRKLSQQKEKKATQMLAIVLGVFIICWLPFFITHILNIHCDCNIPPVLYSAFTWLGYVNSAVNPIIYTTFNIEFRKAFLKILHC

SMILES	inhibition
CCOc1ccc(NC(=O)Nc2c(C)n(C)n(-c3ccccc3)c2=O)cc1	15%
CCC(C)NC(=O)Cn1ncc2c(C)n(Cc3ccc(F)cc3)c(C)c2c1=O (stereo not given)	2.21%
CCc1ccc(CNC(=O)c2nn(-c3ccc(C)c(C)c3)nc2CO)cc1	-20.1%
Cc1ccc2c(CNCc3cccs3)c(C(=O)O)n(Cc3ccc(F)cc3)c2c1	-9.56%
Cc1ccc2c(=O)cc(C(=O)Nc3sc4c(c3C(=O)NCc3ccco3)CCCC4)oc2c1C	7.67%
COC(=O)c1ccc(Cn2c(=O)cc(C)c3c(C)nn(C)c32)cc1	7%
CCc1nnc2n1N=C(c1ccc(OC)cc1)CS2	active: 34.1%
CCn1cc(C(=O)N2CCN(c3ccccc3)CC2)c(=O)c2cc(S(=O)(=O)N(C)C3CCCCC3)ccc21	1.03%
CC(=O)CSc1nc(-c2ccccc2)[nH]c1S(=O)(=O)c1ccc(C)cc1	10.3%
COc1ccc(Cn2c(CO)cnc2SCc2ccccc2)cc1	-2.59%
O=C(COCc1cc(-c2ccc(F)cc2)on1)Nc1cccc(C(F)(F)F)c1	8.91%
CCCOc1ccc(C2C(=O)N(C3CCCCC3)CC(=O)N2C2CCCCC2)cc1OC (stereo not given)	8.93%
COc1ccc(-c2cn3c(n2)sc2cc(C(=O)NCCCN4CCN(C)CC4)ccc23)cc1	17.8%
Fc1ccc(-n2cc(CNCCc3ccccn3)c(-c3ccccc3Cl)n2)cc1	active: 79%
Cc1ccc(-n2c(=O)c3c(C)c(C(=O)N(C)C)sc3n(Cc3ccccc3C)c2=O)cc1C	16.1%
Cc1cccc(Nc2nc(-c3ccccc3)nc3ccccc23)c1	7.26%
Cc1cccc(Cn2c(CN3CCC(C(=O)NC(C)C)CC3)cc3ccccc32)c1	-0.495%
CCOc1ccc(CNC(=O)c2cc3c(=O)oc4ccc(C)cc4c3s2)cc1	-6.21%
Cc1ccc(NC(=O)CSCc2cc(=O)c3ccccc3[nH]2)c(C)c1	-15%
Cc1ccccc1CNCCCSc1nnnn1C	7.57%
COc1ccc(C2C(C(=O)Nc3ccccc3)=C(C)Nc3nc(-c4ccc(Cl)cc4)nn32)cc1 (stereo not given)	10.7%
CC(Nc1oc(-c2ccc(COc3ccccc3)o2)nc1C#N)c1ccccc1 (stereo not given)	-2.89%
Cc1cc(C(=O)OCC(=O)NCCc2ccc(S(N)(=O)=O)cc2)c2ccccc2n1	active: 37.6%
Cc1cccc(-n2ncc3c(NCCOCCO)ncnc32)c1	14.9%
COc1cccc(N2CC(NC(=O)/C=C\c3ccccc3)CC2=O)c1 (stereo not given)	-3.08%

SMILES	inhibition
CCC(=O)N1CCc2cc(S(=O)(=O)CCC(=O)Nc3cc(Cl)ccc3OC)ccc21	1.92%
O=C(CSc1nc2c([nH]c3ccccc32)c(=O)n1-c1ccccc1F)Nc1cccc(Cl)c1	19.3%
CCOc1ccc(-c2cn3c(n2)sc2cc(C(=O)NC(C)C45CC6CC(CC(C6)C4)C5)ccc23)cc1 (stereo not given)	0.691%
CC1CCN(C(=O)Cn2cc(SCC(=O)NCc3ccccc3)c3ccccc32)CC1	7.22%
CCOc1ccc(C(c2c(O)cc(C)n(Cc3ccco3)c2=O)N2CCN(C)CC2)cc1 (stereo not given)	-6.11%
O=S(=O)(c1ccccc1)n1nc(-c2ccco2)nc1NCc1ccccc1	4.1%
CCC(Sc1nnc(-c2ccc(F)cc2)c(-c2ccc(F)cc2)n1)C(=O)NC1CCCC1 (stereo not given)	-6.54%
COc1ccc(-n2ncc(C(=O)NCc3cccs3)c2C2CCN(C(=O)OC(C)(C)C)CC2)cc1	0.541%
Cc1cccc(CNC(=O)C2CCN(c3nn4cc(-c5ccc(F)cc5)nc4s3)CC2)c1	7.67%
CCc1ccccc1N(CC)C(=O)c1cc2c(s1)-c1ccccc1SC2	2.51%
O=C(Cc1ccc(Cl)cc1)NC1CC(=O)N(c2ccc3c(c2)OCCO3)C1 (stereo not given)	-26.7%
C=CCn1c(CCNC(=O)c2cccs2)nnc1SCC(=O)Nc1cccc(C(C)=O)c1	active: 33.9%
CCC(=O)N1CCCc2cc(S(=O)(=O)N3CCC(C(=O)NC4CCC(C)CC4)CC3)ccc21 (stereo not given)	-0.593%
COc1ccc(-c2cn3c(n2)sc2cc(C(=O)NCCc4ccccc4)ccc23)cc1	-13.7%
Cc1ccc(C)c(NC(=O)c2cnc(N3CCCC3)nc2C)c1	-19.2%
O=C(OCc1cc(=O)n2nc(C3CC3)sc2n1)c1cccc(NC(=O)c2ccccc2Cl)c1	3.23%
O=C(O)Cc1ccc(-n2cccc2)cc1	active: 37.1%
COc1ccc(-c2noc(CN(C(=O)c3ccc(C)cc3C)C(C)C)n2)cc1	10.8%
CCOC(=O)c1ccccc1NC(=O)CSc1ccc(-c2sc(C)nc2C)nn1	16.5%
CCN(C(=O)c1c(C)oc2ncnc(N3CCCCC3)c12)c1cc(C)ccc1C	15.2%
COc1cc2nc(NCCc3cccc(C)c3)n3nc(-c4ccccc4)nc3c2cc1OC	-15.8%
COc1ccc(C2CC(=O)Nc3c2c(C)nn3-c2nncc(-c3ccccc3)n2)c(OC)c1OC (stereo not given)	-8.5%
CCOC(=O)c1cnc2c(ccc3ccccc32)c1Nc1ccccc1O	-8.89%
CCOC(=O)c1cccc(NC(=O)COc2ccc3c(C)cc(=O)oc3c2)c1	-17.5%
O=C(CSc1ccc(-c2ccccc2)nn1)Nc1ccc2c(c1)OCCO2	active: 32.1%
